# Laboratory results: the supplement of paper PMC12217912
# The other results are listed elsewhere or left out. Sequences were assembled here from the parent chain. Inactive controls read about 0.05.
# B1: TEV protease; numbered along this chain (parent)
# chain: MGESLFKGPRDYNPISSSICHLTNESDGHTTSLYGIGFGPFIITNKHLFRRNNGTLVVQSLHGVFKVKDTTTLQQHLVDGRDMIIIRMPKDFPPFPQKLKFREPQREERICLVTTNFQTKSMSSMVSDTSCTFPSGDGIFWKHWIQTKDGQCGSPLVSTRDGFIVGIHSASNFTNTNNYFTSVPKNFMELLTNQEAQQWVSGWRLNADSVLWGGHKVFMVKPEEPFQPVKEATQL
# Variants of: B1
# Assay: raw area under fraction-flipped curve 0-4 h after induction (AUC4h, not background-subtracted), DNA-recorder readout of cleavage of the substrate (dimensionless); higher = more cleavage of the substrate by the protease variant
# Conditions: temperature: 34 °C; time window: 0-4 h after rhamnose induction
# Method: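 In vivo DNA recorder in E. coli TOP10(DE3) ΔrhaA at 34 °C. Each TEVp single-site mutant (parent TEVp 0) is paired with a single-site variant of the 7-mer TEVs (canonical ENLYFQ|S). The substrate sits between flexible linkers in a Bxb1-sfGFP-TEVs-SsrA fusion, so cleavage stabilises Bxb1 and speeds flipping of a recombination array, read by NGS. The value is the raw area under the fraction-flipped curve over 0-4 h after rhamnose induction (AUC4h), with ≥20 reads per time point. It is not background-subtracted; inactive controls average about 0.047.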
# 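Note: Bxb1 expression induced with 0.2% (w/v) L-rhamnose at OD600 near 0.5, cultures sampled hourly, flipped fraction per protease–substrate barcode pair counted by paired-end Illumina sequencing.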
Variant,area with substrate ENLYFQA,area with substrate ENLYFQG,area with substrate ENLYFQH,area with substrate ENLYFQK,area with substrate ENLYFQL,area with substrate ENLYFQM,area with substrate ENLYFQN,area with substrate ENLYFQR,area with substrate ENLYFQS,area with substrate ENLYFQT
MGESLFKGPRDYNPISSSICHLTNESDGHTTSLYGIGFGPFIITNKHLFRRNNGTLVVQSLHGVFKVKDTTTLQQHLVDGRDMIIIRMPKDFPPFPQKLKFREPQREERICLVTTNFQTKSMSSMVSDTSCTFPSGDGIFWKHWIQTKDGQCGSGLVSTRDGFIVGIHSASNFTNTNNYFTSVPKNFMELLTNQEAQQWVSGWRLNADSVLWGGHKVFMVKPEEPFQPVKEATQL [P155G],0.0634,0.0545,0.0513,0.0583,0.0372,0.0468,0.0494,0.0408,0.0594,0.0495
MGESLFKGPRDYNPISSSICHLTNESDGHTTSLYGIGFGPFIITNKHLFRRNNGTLVVQSLHGVFKVKDTTTLQQHLVDGRDMIIIRMPKDFPPFPQKLKFREPQREERICLVTTNFQTKSMSSMVSDTSCTFPSGDGIFWKHWIQTKDGQCGSPLVETRDGFIVGIHSASNFTNTNNYFTSVPKNFMELLTNQEAQQWVSGWRLNADSVLWGGHKVFMVKPEEPFQPVKEATQL [S158E],0.0698,0.0604,,,,,,0.0528,0.0799,
MGESLFKGPRDYNPISSSICHLTNESDGHTTSLYGIGFGPFIITNKHLFRRNNGTLVVQSLHGVFKVKDTTTLQQHLVDGRDMIIIRMPKDFPPFPQKLKFREPQREERICLVTTNFQTKSMSSMVSDTSCTFPSGDGIFWKHWIQTKDGQCGSPLVSVRDGFIVGIHSASNFTNTNNYFTSVPKNFMELLTNQEAQQWVSGWRLNADSVLWGGHKVFMVKPEEPFQPVKEATQL [T159V],0.0901,,,0.0526,,0.108,,0.066,0.101,
MGESLFKGPRDYNPISSSICHLTNESDGHTTSLYGIGFGPFIITNKHLFRRNNGTLVVQSLHGVFKVKDTTTLQQHLVDGRDMIIIRMPKDFPPFPQKLKFREPQREERICLVTTNFQTKSMSSMVSDTSCTFPSGDGIFWKHWIQTKDGQCGSPLVSTRGGFIVGIHSASNFTNTNNYFTSVPKNFMELLTNQEAQQWVSGWRLNADSVLWGGHKVFMVKPEEPFQPVKEATQL [D161G],0.0972,0.0906,,0.0694,0.0326,0.0715,0.0653,,0.0926,0.0774
MGESLFKGPRDYNPISSSICHLTNESDGHTTSLYGIGFGPFIITNKHLFRRNNGTLVVQSLHGVFKVKDTTTLQQHLVDGRDMIIIRMPKDFPPFPQKLKFREPQREERICLVTTNFQTKSMSSMVSDTSCTFPSGDGIFWKHWIQTKDGQCGSPLVSTRDNFIVGIHSASNFTNTNNYFTSVPKNFMELLTNQEAQQWVSGWRLNADSVLWGGHKVFMVKPEEPFQPVKEATQL [G162N],0.0947,,,0.0763,,0.0947,,,0.096,0.0621
MGESLFKGPRDYNPISSSICHLTNESDGHTTSLYGIGFGPFIITNKHLFRRNNGTLVVQSLHGVFKVKDTTTLQQHLVDGRDMIIIRMPKDFPPFPQKLKFREPQREERICLVTTNFQTKSMSSMVSDTSCTFPSGDGIFWKHWIQTKDGQCGSPLVSTRDGNIVGIHSASNFTNTNNYFTSVPKNFMELLTNQEAQQWVSGWRLNADSVLWGGHKVFMVKPEEPFQPVKEATQL [F163N],0.0995,,0.0772,,,,,,0.0973,
MGESLFKGPRDYNPISSSICHLTNESDGHTTSLYGIGFGPFIITNKHLFRRNNGTLVVQSLHGVFKVKDTTTLQQHLVDGRDMIIIRMPKDFPPFPQKLKFREPQREERICLVTTNFQTKSMSSMVSDTSCTFPSGDGIFWKHWIQTKDGQCGSPLVSTRDGFILGIHSASNFTNTNNYFTSVPKNFMELLTNQEAQQWVSGWRLNADSVLWGGHKVFMVKPEEPFQPVKEATQL [V165L],0.11,,,,0.0634,,0.0714,0.0537,0.116,
MGESLFKGPRDYNPISSSICHLTNESDGHTTSLYGIGFGPFIITNKHLFRRNNGTLVVQSLHGVFKVKDTTTLQQHLVDGRDMIIIRMPKDFPPFPQKLKFREPQREERICLVTTNFQTKSMSSMVSDTSCTFPSGDGIFWKHWIQTKDGQCGSPLVSTRDGFIVEIHSASNFTNTNNYFTSVPKNFMELLTNQEAQQWVSGWRLNADSVLWGGHKVFMVKPEEPFQPVKEATQL [G166E],0.0526,0.0316,0.0544,0.0478,0.0503,,,,0.052,0.0501
MGESLFKGPRDYNPISSSICHLTNESDGHTTSLYGIGFGPFIITNKHLFRRNNGTLVVQSLHGVFKVKDTTTLQQHLVDGRDMIIIRMPKDFPPFPQKLKFREPQREERICLVTTNFQTKSMSSMVSDTSCTFPSGDGIFWKHWIQTKDGQCGSPLVSTRDGFIVGIHYASNFTNTNNYFTSVPKNFMELLTNQEAQQWVSGWRLNADSVLWGGHKVFMVKPEEPFQPVKEATQL [S169Y],0.0523,,,,,0.0523,,,0.0609,
MGESLFKGPRDYNPISSSICHLTNESDGHTTSLYGIGFGPFIITNKHLFRRNNGTLVVQSLHGVFKVKDTTTLQQHLVDGRDMIIIRMPKDFPPFPQKLKFREPQREERICLVTTNFQTKSMSSMVSDTSCTFPSGDGIFWKHWIQTKDGQCGSPLVSTRDGFIVGIHSISNFTNTNNYFTSVPKNFMELLTNQEAQQWVSGWRLNADSVLWGGHKVFMVKPEEPFQPVKEATQL [A170I],0.0595,,,0.0488,0.0528,,,,0.059,0.0673
MGESLFKGPRDYNPISSSICHLTNESDGHTTSLYGIGFGPFIITNKHLFRRNNGTLVVQSLHGVFKVKDTTTLQQHLVDGRDMIIIRMPKDFPPFPQKLKFREPQREERICLVTTNFQTKSMSSMVSDTSCTFPSGDGIFWKHWIQTKDGQCGSPLVSTRDGFIVGIHSKSNFTNTNNYFTSVPKNFMELLTNQEAQQWVSGWRLNADSVLWGGHKVFMVKPEEPFQPVKEATQL [A170K],0.0613,,0.0545,,,,0.0569,0.0618,0.0605,

# Same assay, conditions: temperature: 34 °C; time window: 0-4 h after rhamnose induction
Variant,area with substrate ENLYFQW,area with substrate ENLYFQC,area with substrate ENLYFQI,area with substrate ENLYFQY,area with substrate ENLYFQD,area with substrate ENLYFQP,area with substrate ENLYFQF,area with substrate ENLYFQV,area with substrate ENLYFQE,area with substrate ENLYFQQ
MGESLFKGPRDYNPISSSICHLTNESDGHTTSLYGIGFGPFIITNKHLFRRNNGTLVVQSLHGVFKVKDTTTLQQHLVDGRDMIIIRMPKDFPPFPQKLKFREPQREERICLVTTNFQTKSMSSMVSDTSCTFPSGDGIFWKHWIQTKDGQCGSGLVSTRDGFIVGIHSASNFTNTNNYFTSVPKNFMELLTNQEAQQWVSGWRLNADSVLWGGHKVFMVKPEEPFQPVKEATQL [P155G],0.0613,,,,,,,,,
MGESLFKGPRDYNPISSSICHLTNESDGHTTSLYGIGFGPFIITNKHLFRRNNGTLVVQSLHGVFKVKDTTTLQQHLVDGRDMIIIRMPKDFPPFPQKLKFREPQREERICLVTTNFQTKSMSSMVSDTSCTFPSGDGIFWKHWIQTKDGQCGSPLVETRDGFIVGIHSASNFTNTNNYFTSVPKNFMELLTNQEAQQWVSGWRLNADSVLWGGHKVFMVKPEEPFQPVKEATQL [S158E],,0.0782,0.0321,0.0703,,,,,,
MGESLFKGPRDYNPISSSICHLTNESDGHTTSLYGIGFGPFIITNKHLFRRNNGTLVVQSLHGVFKVKDTTTLQQHLVDGRDMIIIRMPKDFPPFPQKLKFREPQREERICLVTTNFQTKSMSSMVSDTSCTFPSGDGIFWKHWIQTKDGQCGSPLVSVRDGFIVGIHSASNFTNTNNYFTSVPKNFMELLTNQEAQQWVSGWRLNADSVLWGGHKVFMVKPEEPFQPVKEATQL [T159V],,0.127,,,0.0725,0.056,,,,
MGESLFKGPRDYNPISSSICHLTNESDGHTTSLYGIGFGPFIITNKHLFRRNNGTLVVQSLHGVFKVKDTTTLQQHLVDGRDMIIIRMPKDFPPFPQKLKFREPQREERICLVTTNFQTKSMSSMVSDTSCTFPSGDGIFWKHWIQTKDGQCGSPLVSTRGGFIVGIHSASNFTNTNNYFTSVPKNFMELLTNQEAQQWVSGWRLNADSVLWGGHKVFMVKPEEPFQPVKEATQL [D161G],0.0586,0.09,0.0524,0.0893,,,0.0537,,,
MGESLFKGPRDYNPISSSICHLTNESDGHTTSLYGIGFGPFIITNKHLFRRNNGTLVVQSLHGVFKVKDTTTLQQHLVDGRDMIIIRMPKDFPPFPQKLKFREPQREERICLVTTNFQTKSMSSMVSDTSCTFPSGDGIFWKHWIQTKDGQCGSPLVSTRDNFIVGIHSASNFTNTNNYFTSVPKNFMELLTNQEAQQWVSGWRLNADSVLWGGHKVFMVKPEEPFQPVKEATQL [G162N],,,0.0518,0.0753,,,,,,
MGESLFKGPRDYNPISSSICHLTNESDGHTTSLYGIGFGPFIITNKHLFRRNNGTLVVQSLHGVFKVKDTTTLQQHLVDGRDMIIIRMPKDFPPFPQKLKFREPQREERICLVTTNFQTKSMSSMVSDTSCTFPSGDGIFWKHWIQTKDGQCGSPLVSTRDGNIVGIHSASNFTNTNNYFTSVPKNFMELLTNQEAQQWVSGWRLNADSVLWGGHKVFMVKPEEPFQPVKEATQL [F163N],,,,,,,0.0881,0.0516,,
MGESLFKGPRDYNPISSSICHLTNESDGHTTSLYGIGFGPFIITNKHLFRRNNGTLVVQSLHGVFKVKDTTTLQQHLVDGRDMIIIRMPKDFPPFPQKLKFREPQREERICLVTTNFQTKSMSSMVSDTSCTFPSGDGIFWKHWIQTKDGQCGSPLVSTRDGFILGIHSASNFTNTNNYFTSVPKNFMELLTNQEAQQWVSGWRLNADSVLWGGHKVFMVKPEEPFQPVKEATQL [V165L],0.0767,,0.0114,,,0.0387,0.0508,,,
MGESLFKGPRDYNPISSSICHLTNESDGHTTSLYGIGFGPFIITNKHLFRRNNGTLVVQSLHGVFKVKDTTTLQQHLVDGRDMIIIRMPKDFPPFPQKLKFREPQREERICLVTTNFQTKSMSSMVSDTSCTFPSGDGIFWKHWIQTKDGQCGSPLVSTRDGFIVEIHSASNFTNTNNYFTSVPKNFMELLTNQEAQQWVSGWRLNADSVLWGGHKVFMVKPEEPFQPVKEATQL [G166E],0.0506,,,,,,,0.0391,0.0474,0.0527
MGESLFKGPRDYNPISSSICHLTNESDGHTTSLYGIGFGPFIITNKHLFRRNNGTLVVQSLHGVFKVKDTTTLQQHLVDGRDMIIIRMPKDFPPFPQKLKFREPQREERICLVTTNFQTKSMSSMVSDTSCTFPSGDGIFWKHWIQTKDGQCGSPLVSTRDGFIVGIHSKSNFTNTNNYFTSVPKNFMELLTNQEAQQWVSGWRLNADSVLWGGHKVFMVKPEEPFQPVKEATQL [A170K],0.0461,0.0591,0.0672,,,,,,,
